These results are taken from paper PMC4336329 (PLoS ONE, 2015).

About 14,000 (4.5%) of roughly 310,000 compounds showed an effect of 50% or more. The effect is printed as a negative number. Some of the results follow.
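Also: peak tail current of the secondary pulse compared with the same well before compound.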

Sequence of human ether-à-go-go-related gene (hERG) potassium channel (Q12809 whole entry, looked up): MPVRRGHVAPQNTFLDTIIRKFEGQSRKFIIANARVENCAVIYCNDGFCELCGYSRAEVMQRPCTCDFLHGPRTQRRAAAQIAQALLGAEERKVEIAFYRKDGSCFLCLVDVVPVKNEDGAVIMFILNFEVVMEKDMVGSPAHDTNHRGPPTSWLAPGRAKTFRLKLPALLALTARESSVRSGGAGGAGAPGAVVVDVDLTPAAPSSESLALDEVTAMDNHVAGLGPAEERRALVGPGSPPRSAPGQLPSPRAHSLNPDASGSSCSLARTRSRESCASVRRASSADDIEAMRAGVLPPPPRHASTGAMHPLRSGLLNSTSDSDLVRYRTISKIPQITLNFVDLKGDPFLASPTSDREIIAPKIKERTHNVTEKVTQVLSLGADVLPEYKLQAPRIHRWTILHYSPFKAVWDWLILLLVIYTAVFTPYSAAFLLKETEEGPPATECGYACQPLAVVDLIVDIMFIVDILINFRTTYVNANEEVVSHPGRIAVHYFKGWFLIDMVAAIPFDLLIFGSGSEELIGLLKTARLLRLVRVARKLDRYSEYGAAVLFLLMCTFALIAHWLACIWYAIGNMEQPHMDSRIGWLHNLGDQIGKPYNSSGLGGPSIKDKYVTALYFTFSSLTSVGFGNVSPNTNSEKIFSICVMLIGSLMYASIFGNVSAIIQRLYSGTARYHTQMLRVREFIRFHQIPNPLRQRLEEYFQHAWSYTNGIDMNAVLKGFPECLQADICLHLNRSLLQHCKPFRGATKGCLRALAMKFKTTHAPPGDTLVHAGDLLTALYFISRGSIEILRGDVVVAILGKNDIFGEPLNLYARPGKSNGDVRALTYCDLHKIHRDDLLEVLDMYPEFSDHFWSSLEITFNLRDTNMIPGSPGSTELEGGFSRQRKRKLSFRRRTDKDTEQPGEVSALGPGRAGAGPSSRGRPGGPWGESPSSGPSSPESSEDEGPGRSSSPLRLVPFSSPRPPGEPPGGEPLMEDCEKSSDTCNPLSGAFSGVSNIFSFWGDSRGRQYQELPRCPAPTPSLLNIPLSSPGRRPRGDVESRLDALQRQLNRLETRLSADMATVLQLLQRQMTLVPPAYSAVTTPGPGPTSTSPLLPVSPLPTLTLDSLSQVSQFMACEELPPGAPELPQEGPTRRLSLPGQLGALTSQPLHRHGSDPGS

This experiment has as its target human ether-à-go-go-related gene (hERG) potassium channel (human, UniProt Q12809). Description: primary screen, population patch clamp on CHO cells stably expressing hERG.
Turning to `CN(c1ccccc1)c1nc(N)c([N+](=O)[O-])c(N2CCCC2)n1`, the “hERG current change (%, negative = inhibition) at 10uM” value was -11.9%. The result for `COc1ccc(NC(=O)CSc2nc(O)cc(=O)n2-c2ccccc2)cc1` reads 12.1%. Turning to `CCN1C(=O)NC(=O)/C(=C/c2cc(C)n(-c3sc(C)c(C)c3C#N)c2C)C1=O`, the “hERG current change (%, negative = inhibition) at 10uM” value is listed as -4.66%. With `COc1ccc(OCC(=O)NNC(=S)NC(=O)C2CCCCC2)cc1`, the “hERG current change (%, negative = inhibition) at 10uM” value is on record as 18.5%. To `CCCC(C)NC(=O)C1c2ccccc2Oc2ccccc21` (centres unmarked) belongs 14.9%; to `Cc1ccc(CSCC(=O)Nc2c(C)n(C)n(-c3ccccc3)c2=O)cc1`, 32.7%; to `COc1ccccc1Nc1nc(Cl)c(C=O)s1`, 8.17%. In the case of `CC(=O)n1c2ccccc2c2ccccc21`, the “hERG current change (%, negative = inhibition) at 10uM” value is given as 4.56%.

For `COc1ccc(-c2cc(C)no2)cc1S(=O)(=O)Nc1ccccc1`, the “hERG current change (%, negative = inhibition) at 10uM” value was 13.6%. Take `CCc1ccc(S(=O)(=O)NCCc2cn3ccccc3n2)s1`: the “hERG current change (%, negative = inhibition) at 10uM” value is recorded as -29.5%. To `CCOc1ccc(S(=O)(=O)NCc2cccnc2)cc1` belongs 15.5%; to `O=C(NC1CC1)C1CCN(c2ncnc3c2sc2cccc(F)c23)CC1`, -52%; to `N#CC(C#N)=Cc1cccn1-c1ccc(S(N)(=O)=O)cc1`, 9.19%. The result for `Cc1cccc(NC2(C(F)(F)F)N=C3SCCN3C2=O)n1` (centres unmarked) reads 5.6%; that for `O=C(c1ccccc1Cl)N1N=C(c2ccc(Br)cc2)CC1c1nc2ccccc2[nH]1` (centres unmarked), -7.26%; that for `Cc1ccccc1NC(=O)C1CCCN1/C=C/C(=O)C(F)(F)F` (centres unmarked), -6.9%. The result for `CN(C)S(=O)(=O)c1ccc(C(=O)N(c2ccccn2)c2ccccn2)cc1` reads 4.26%; that for `CCCCN(CC)CCNC(=O)Cn1cnc2sc(C)c(S(=O)(=O)N3CCOCC3)c2c1=O`, 0.792%; that for `c1cncc(CSc2ccc(-c3cccs3)nn2)c1`, -10.7%. As to `COc1ccc(NC(=O)CCl)cn1`, the “hERG current change (%, negative = inhibition) at 10uM” value was found to be 18.2%. Turning to `CCCCn1c(SCC(=O)Nc2sc3c(c2C(N)=O)CCC3)nnc1-c1ccccc1`, the “hERG current change (%, negative = inhibition) at 10uM” value is recorded as -12.6%. The result for `Cc1ccc(-n2c(CSc3nc(C)cc(C)n3)n[nH]c2=S)cc1` reads 11.5%. To `Cc1ccc(C)n1Cc1ccc(C(=O)O)cc1` belongs 12.3%; to `N#Cc1ccc(C(=O)NC2CCCc3ccccc32)cc1` (centres unmarked), -52.8%; to `Clc1ccc(-[n+]2c(-c3cccc(Br)c3)[nH]c3nc4ccccc4nc32)cc1`, 13.5%. In the case of `O=C(NN(CC(O)COc1ccccc1)CC(O)COc1ccccc1)c1ccccc1` (centres unmarked), the “hERG current change (%, negative = inhibition) at 10uM” value is -66.1%.
